The other results are listed elsewhere or left out. At the low end of the ranking the order means little.
The sequences below were run against T1, GST-Rok-C97-191 (UniProt O34857) (assay: protein binding microarray). Settings: Rok is a gene silencer of Bacillus subtilis; high values mean tight binding; most listed sequences are background and not binding sites; double strand, one strand shown.
T1 sequence: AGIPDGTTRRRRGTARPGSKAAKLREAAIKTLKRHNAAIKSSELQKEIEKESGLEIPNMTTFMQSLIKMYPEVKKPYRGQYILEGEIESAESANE
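Further: rank score from −0.5 (least bound) to 0.5 (best bound).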

| Sequence | binding signal [E-score] |
| --- | --- |
| ATAGCGCG | 0.278 |
| ACATGCTA | 0.33 |
| ACTCTTGA | -0.0447 |
| ACATATGA | 0.00179 |
| CGGAAGAA | -0.185 |
| ACCGAGCG | -0.105 |
| GAGCGTTA | 0.0369 |
| GCTGTGAC | 0.0248 |
| ATTGCCTG | -0.108 |
| AGGTACCG | 0.0191 |
| ACCATCGC | -0.0189 |
| CCACCGCG | -0.199 |
| AGAGGTAC | 0.0383 |
| GCAAAGCA | -0.0549 |
| AAAGCGCC | -0.0581 |
| CTCCGCTA | -0.137 |
| CGTATAAA | 0.133 |
| AGAGCGGA | -0.233 |
| CACGACCA | -0.0663 |
| GTGTATCA | 0.0722 |
| ACTATGCG | 0.107 |
| CCCACACG | -0.192 |
| CATCTACG | -0.0119 |
| AACTATCT | 0.294 |
| CACAATGA | 0.00707 |

| Sequence | binding signal [E-score] |
| --- | --- |
| CCTAAATC | -0.11 |
| GTCGCATA | 0.0707 |
| AGCATTTG | -0.0352 |
| GCTCTCGA | -0.114 |
| CCACGGAC | -0.178 |
| GACATTGC | -0.183 |
| ATGGTAGG | 0.278 |
| ATTACCTA | 0.337 |
| CTACATAC | 0.274 |
| AGGCCGGC | -0.232 |
| AGGAATGC | -0.00187 |
| CGGTTAAC | 0.0773 |
| GCAAAATA | 0.242 |
| TACACACA | 0.117 |
| GGCAGCTA | -0.0536 |
| CTTACATA | 0.192 |
| AGCACCAA | -0.0808 |
| ACCCTGAC | -0.303 |
| CCCTCTGC | -0.279 |
| AACACTGT | 0.147 |
| GCCTGGCA | -0.319 |
| ACTACGGA | 0.164 |
| GACGCTCC | -0.127 |
| CCTATGAG | -0.0807 |
| ACCGCTGG | 0.0107 |

| Sequence | binding signal [E-score] |
| --- | --- |
| ACTGGTAA | 0.261 |
| AATCCACG | 0.104 |
| AGCGCGAA | 0.212 |
| ATATTAAC | 0.296 |
| CTGCGCCA | -0.107 |
| CTTCCGCA | -0.0961 |
| CAACGAGC | -0.151 |
| GTACAATA | 0.251 |
| GGGGTTAC | -0.239 |
| AAGTTGGG | -0.00229 |
| AAAGCTCT | -0.0949 |
| AACTGCTA | 0.0364 |
| AGGGTACT | 0.118 |
| CGTGGTGA | -0.0886 |
| ATAAGACA | 0.00737 |
| CGCAGCCA | -0.175 |
| GACGGGAC | -0.223 |
| AATGGTCC | -0.073 |
| CCATGAGG | -0.0423 |
| CGAATGGA | 0.0881 |
| ATGTTGCC | -0.161 |
| AGAGATGG | -0.123 |
| AAGGGCGT | -0.132 |
| GTCTTCTA | 0.125 |
| CGTGGCAA | -0.112 |

| Sequence | binding signal [E-score] |
| --- | --- |
| ATTCACGA | 0.136 |
| GATGTAAC | 0.092 |
| AGGTGATG | -0.171 |
| ACACAATG | -0.0401 |
| ACTACTAT | 0.46 |
| AATACGGC | 0.0504 |
| ACTGACCC | -0.13 |
| AGGCAGGC | -0.357 |
| GGGTCCTA | -0.0419 |
| CTGTTCTA | 0.0964 |
| AGTTTGGA | 0.178 |
| CATAGAGC | -0.181 |
| AAAGGCGT | -0.0871 |
| GCTATTAC | 0.285 |
| GCAGCTAA | 0.0158 |
| ATCGACGC | -0.0747 |
| CCATTATC | 0.15 |
| TCGAGGAA | -0.0145 |
| ACGTCTGG | -0.225 |
| ATACCAAG | 0.0191 |
| ACGCCCCC | -0.315 |
| CCATGCGG | -0.0268 |
| CCGTGGTA | -0.0158 |
| GTTCCCCA | -0.234 |
| GTCCCCCA | -0.199 |

| Sequence | binding signal [E-score] |
| --- | --- |
| CTAGCACC | 0.0257 |
| AACGTACT | 0.201 |
| CGAACAGA | 0.133 |
| AAGTTCTG | 0.132 |
| GAATGTCC | -0.074 |
| CTACATGC | 0.305 |
| ACTGTTCC | -0.0604 |
| AGACAGAA | -0.0135 |
| CACTACTC | -0.0277 |
| CTACCAAC | 0.235 |
| ATCCTAAC | 0.1 |
| ATTCGGCA | 0.0659 |
| TAAAGATA | 0.27 |
| GCCAGATA | -0.192 |
| ACGGTTGA | 0.0453 |
| CCACGCAA | -0.0524 |
| CGCATACG | 0.114 |
| CAGTTTCG | 0.0803 |
| GACAGTTA | 0.0912 |
| ACTACGAG | 0.171 |
| CAACAGCA | -0.159 |
| ATTTCGGG | -0.161 |
| CAGACATC | -0.232 |
| ACAAAATC | 0.16 |
| TACATCTA | 0.369 |

| Sequence | binding signal [E-score] |
| --- | --- |
| TAAGCGAA | -0.154 |
| ATTGCTAG | 0.266 |
| ATCCTTTC | 0.0586 |
| CATGTCCG | 0.0905 |
| CGTATACC | 0.00242 |
| GGGAACAC | -0.137 |
| GAACGGAC | -0.373 |
| AACTTTCC | 0.045 |
| CTCTATAC | 0.143 |
| ACGTCGAA | 0.096 |
| ATGGCCTC | -0.182 |
| AGTGACAC | -0.0326 |
| AACATTAC | 0.127 |
| AAATTTGA | 0.0368 |
| ACCTCACA | 0.0491 |
| GAGGCGAC | -0.0191 |
| GATCCGAC | -0.0267 |
| CCTACAGG | -0.0994 |
| AAATATTA | 0.355 |
| AGTATTTC | 0.311 |
| CTCCTAAC | 0.0286 |
| ACTAACTA | 0.367 |
| TCGCCTCA | -0.0614 |
| ATCCATCC | 0.0617 |
| TAACCCTA | -0.0278 |

| Sequence | binding signal [E-score] |
| --- | --- |
| AACTCCTC | -0.0635 |
| CTAACAAC | 0.0204 |
| AGCTCACG | -0.0298 |
| CCGTCGAG | -0.248 |
| GCTCAAAC | -0.0747 |
| CACCTGTA | 0.0434 |
| CTGATAAC | 0.0625 |
| GACGACGC | -0.0813 |
| CAAGCTTC | -0.0593 |
| CAATAAGA | -0.045 |
| ACGGGTGA | -0.0241 |
| CATATTTC | 0.245 |
| CATGACTA | 0.0832 |
| ATCTTTGA | 0.0195 |
| AAGCCAAC | -0.171 |
| CGTTACTA | 0.299 |
| CAAGAGAG | -0.105 |
| GCTTTGTA | 0.225 |
| CTCATTGC | -0.158 |
| AACTGACA | -0.0326 |
| GTAGGGGA | -0.235 |
| GGCATGGA | -0.144 |

Reference: publication PMC6212790
